The whole screen tested about 220,000 compounds, of which about 16,000 (7.3%) were called active. Inconclusive means that the source gave no clear call. Such entries were picked first, then a sample of the others. The call rests on the fitted dose curve; in most records, active means well fitted inhibition curve with a large enough effect (not every such curve was filed as active); inconclusive means small, poorly fitted or top-dose-only effect, or another doubt; inactive means no such curve, though single readings can be large or run the other way. Potencies of inconclusive entries are left out as doubtful fits.
target: Aldehyde dehydrogenase 1A1 (Homo sapiens) (UniProt P00352); experiment: qHTS Assay for Inhibitors of Aldehyde Dehydrogenase 1 (ALDH1A1); settings: Purified ALDH1A1, NADH fluorescence, propionaldehyde substrate; series mostly up to 75.3 µM;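 on activity, negative = inhibition: plate controls were no enzyme wells and a reference inhibitor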
Chain of UniProt P00352 (P00352 whole entry, looked up): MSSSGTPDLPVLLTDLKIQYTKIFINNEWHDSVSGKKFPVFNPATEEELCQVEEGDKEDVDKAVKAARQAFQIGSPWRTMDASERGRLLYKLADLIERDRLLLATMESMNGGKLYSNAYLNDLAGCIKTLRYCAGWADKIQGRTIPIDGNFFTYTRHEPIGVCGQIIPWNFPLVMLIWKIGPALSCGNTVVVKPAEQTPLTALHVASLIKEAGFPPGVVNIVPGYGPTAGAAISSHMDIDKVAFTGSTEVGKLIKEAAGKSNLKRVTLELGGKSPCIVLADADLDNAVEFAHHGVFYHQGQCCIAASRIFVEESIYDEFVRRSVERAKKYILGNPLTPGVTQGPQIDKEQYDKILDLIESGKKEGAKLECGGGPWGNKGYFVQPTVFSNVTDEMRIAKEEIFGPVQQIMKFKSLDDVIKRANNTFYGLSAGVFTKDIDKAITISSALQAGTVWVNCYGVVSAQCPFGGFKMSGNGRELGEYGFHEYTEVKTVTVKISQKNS
Potency means the concentration at half of the fitted maximal effect; tags describe the fitted curve by direction and shape.

Row | Compound | Potency | activity, negative = inhibition
1 | CC1(C)CCC[C@]2(C)C3CC(=O)O[C@@]3(C)CC[C@H]12 (some centres not stated) | active: 20 µM | 
2 | CCOc1c(OC)cccc1C1CC(=O)Nc2cc(OC)c(OC)cc21 (configuration not stated) | inactive | 
3 | Cc1nc2cc(-c3cccc(F)c3)nn2c(N2CCN(C(=O)c3ccco3)CC2)c1C | inconclusive [inhibitor, partial curve] | 
4 | Cc1cc(=O)oc2cc(OCC3CC(c4ccc(Cl)cc4)=NO3)ccc12 (configuration not stated) | inconclusive [inhibitor, partial curve] | 
5 | COc1ccc(N2CCCn3c2nc2c3c(=O)n(Cc3ccccc3F)c(=O)n2C)cc1 | active: 8.91 µM | 
6 | Cc1nc2ccccn2c1C(=O)N/N=C/c1cc(C)n(-c2ccc(Cl)cc2)c1C | inconclusive [inhibitor, single point] | 
7 | O=C(Nc1ccccc1C(F)(F)F)c1cc2ncc(CCCl)cn2n1 | inconclusive [inhibitor, partial curve] | 
8 | COc1ccc(CCN(C)CCCC(C#N)(c2cc(OC)c(OC)c(OC)c2)C(C)C)cc1OC (configuration not stated) | inactive | 
9 | Cc1ccc(S(=O)(=O)Nc2cc3c(C(=O)Nc4ccccc4)c(C)oc3c3ccccc23)cc1 | inconclusive [inhibitor, single point] | 
10 | COc1ccccc1CN1CC[C@@]2(CCCN(C(=O)c3ccco3)C2)C1 | inconclusive [inhibitor, single point] | 
11 | Clc1ccccc1-c1nc(-n2ccnc2)c2ccccc2n1 | inactive | 
12 | O=C(c1ccc(S(=O)(=O)N2CCOCC2)cc1)N1CCN=C1SCc1cccnc1 | inconclusive [inhibitor, single point] | 
13 | Fc1ccc(-c2cc3nc(-c4ccccc4)cc(N4CCN(CCN5CCOCC5)CC4)n3n2)cc1 | inconclusive [inhibitor, partial curve] | 
14 | CC(Sc1nc2cc([N+](=O)[O-])ccc2n1-c1ccc(F)cc1)C(=O)NCc1ccc2c(c1)OCO2 (configuration not stated) | active: 1.41 µM | 
15 | Cc1noc(C)c1COc1ccc(C(=O)OCC(=O)NCc2ccccc2Cl)cc1 | inactive | 
16 | Cc1ccc2c(c1)N/C(=C(\C=C(/Cl)[N+](=O)[O-])[N+](=O)[O-])N2 | inconclusive [inhibitor, partial curve] | 
17 | CCOC(=O)N1CCN(C(=O)CN(C2CCCCC2)S(=O)(=O)c2c(C)cc(C)cc2C)CC1 | inactive | 
18 | NS(=O)(=O)c1cccc(NC(=O)c2cc3ccccc3o2)c1 | inactive | 
19 | COc1ccc(S(=O)(=O)N2CCN(CC(=O)Nc3cc(OC)cc(OC)c3)CC2)cc1 | inconclusive [inhibitor, single point] | 
20 | Cc1ccc(Nc2cnn(C34CC5CC(CC(CC(=O)O)(C5)C3)C4)c(=O)c2Cl)cc1 | inconclusive [inhibitor, single point] | 
21 | COc1cc(NS(=O)(=O)c2ccc(F)cc2)c(C(=O)O)cc1OC | inactive | 
22 | Cc1ccc(C)c(N2CCN(C(=O)c3ccc(Cn4c(=S)[nH]c5ccc(N6CCOCC6)cc5c4=O)cc3)CC2)c1 | inconclusive [inhibitor, single point] | 
23 | Cc1nc2cc3nc(C)sc3cc2s1 | active: 1.78 µM | 
24 | Cc1ccc(-c2noc(-c3cccs3)n2)cc1 | inconclusive [inhibitor, single point] | 

Row | Compound | Potency | activity, negative = inhibition
25 | Cc1ccc(S(=O)(=O)N/N=C/c2cnn(C)c2C)cc1 | inconclusive [inhibitor, single point] | 
26 | O=C(/C=C/c1ccco1)NC(=S)Nc1ccc(Cl)cn1 | active: 10 µM | 
27 | COc1ccccc1CNC(=O)c1cn(C)c2ccc(S(=O)(=O)N3CCCCC3)cc2c1=O | inactive | 
28 | COc1ccccc1Nc1nc(N)nc(-c2cc3ccccc3o2)n1 | inconclusive [inhibitor, single point] | 
29 | CO[C@H]1COC(=O)[C@H](C)NC(=O)C/C=C\[C@@H](C)[C@@H](NS(=O)(=O)c2ccc(C)cc2)COC(=O)C/C=C\[C@@H]1C |  | inactive: 5.91% [at 13.5 µM]
30 | CCN1C(=O)C(O)(CC(=O)c2c(C)coc2C)c2ccccc21 (configuration not stated) | inconclusive [inhibitor, single point] | 
31 | COc1cc(NC(=S)N2CCC(C(O)(c3ccccc3)c3ccccc3)CC2)cc(OC)c1 | inactive | 
32 | O=C(NCCSCc1ccccc1)c1ccc(C2SCC(=O)N2Cc2ccccc2)cc1 (configuration not stated) | inconclusive [inhibitor, single point] | 
33 | O=C(COC(=O)c1cc(S(=O)(=O)N2CCc3ccccc3C2)ccc1Cl)NCc1ccco1 | inconclusive [inhibitor, single point] | 
34 | CCOC(=O)c1ccccc1NC(=O)CSc1ncc(C(=O)OCC)c(N)n1 | active: 20 µM | 
35 | O=C(CC(NCCc1ccccc1)C(=O)O)Nc1ccc(O)cc1 (configuration not stated) | inconclusive [inhibitor, single point] | 
36 | O=[N+]([O-])c1ccc(N2CCCCC2)cc1NCCOc1ccccc1 | inactive | 
37 | Cc1ccc(NC(=O)c2cc(-c3ccccc3)nn2-c2ccccc2)c(Br)c1 | inconclusive [inhibitor, single point] | 
38 | O=C(CSCC(=O)OCn1nnc2ccccc2c1=O)Nc1ccc(Cl)cc1 | inconclusive [inhibitor, single point] | 
39 | c1ccc(-n2c(-c3cccs3)nc3nc4ccccc4nc32)cc1 | inconclusive [inhibitor, partial curve] | 
40 | CCn1c(SCC(=O)Nc2nc(C)cs2)nnc1-c1ccoc1C | inconclusive [inhibitor, single point] | 
41 | CC(=O)Oc1cccc(/C=C2\C=C(c3ccc(C)cc3)OC2=O)c1 | inconclusive [inhibitor, single point] | 
42 | O=C(NCc1ccccc1)c1cccc(OCC(=O)N2CCN(C(=O)c3ccco3)CC2)c1 | active: 15.8 µM | 
43 | Cc1ccc(C(=O)NC(=O)OCCn2c(C)cnc2[N+](=O)[O-])cc1 | inactive | 
44 | Cc1[nH]n(-c2ccccc2)c(=O)c1C=Nc1ccc(S(=O)(=O)Nc2nccs2)cc1 | active: 12.6 µM | 
45 | Cn1c(SCC(=O)N/N=C/C=C\c2ccco2)nc2ccccc21 | active: 5.97 µM | 
46 | Cc1c(C(=O)O)cccc1-c1ccc(/C=N/Nc2ccc(Br)cc2)o1 | inconclusive [inhibitor, partial curve] | 
47 | Cc1cc(C(=O)CSc2nnnn2C)c(C)n1Cc1ccco1 | active: 28.2 µM | 
48 | O=C1C2CCCCN2C(=O)N1CCN1CCN(c2ccc([N+](=O)[O-])cc2)CC1 (configuration not stated) | inconclusive [inhibitor, partial curve] | 

Row | Compound | Potency | activity, negative = inhibition
49 | Nc1cc(C(Cl)=C(Cl)Cl)c(S(N)(=O)=O)cc1S(N)(=O)=O | inactive | 
50 | Nc1cccc(-c2ccc(CO)o2)c1 | inconclusive [inhibitor, single point] | 
51 | COc1cc(NC(=O)COc2ccccc2[N+](=O)[O-])ccc1NC(=O)c1cccs1 | inactive | 
52 | C/C(=N\NC(=O)CSc1nnc(C)s1)c1ccc(Cl)cc1 | inconclusive [inhibitor, single point] | 
53 | O=C(CN1CCN(Cc2ccccc2)CC1)NCCNc1ccc([N+](=O)[O-])cn1 | active: 9.46 µM | 
54 | CCN1CCN(C(=O)CSCc2nc(-c3ccc(OC)c(OC)c3)oc2C)CC1 | inconclusive [inhibitor, partial curve] | 
55 | Cc1sc2nc(CSc3ccc([N+](=O)[O-])cc3)[nH]c(=O)c2c1C | inconclusive [inhibitor, partial curve] | 
56 | COc1ccc(-n2nnnc2SCC(=O)Nc2cccc(C)n2)cc1OC | inactive | 
57 | Cc1cc(Br)ccc1NC(=O)c1ccccc1-c1ccccc1 | inconclusive [inhibitor, single point] | 
58 | COc1ccc(-c2cc(C(F)(F)F)nc(N3CCCCCC3)n2)cc1 | inconclusive [inhibitor, single point] | 
59 | Cc1ccc(C)c(C(C)NC(=O)c2ccc(Br)o2)c1 (configuration not stated) | active: 3.98 µM | 
60 | CCCC(=O)N1CCN(c2ccc(NC(=O)c3ccc([N+](=O)[O-])o3)cc2Cl)CC1 | active: 17.8 µM | 
61 | CCc1cccc(CC)c1NC(=O)/C(C#N)=C/c1ccccc1C(F)(F)F | inactive | 
62 | Cc1nc(N2CCCCC2C)c2c(C)c(C(=O)Nc3ccccc3C(F)(F)F)sc2n1 (configuration not stated) | inconclusive [inhibitor, single point] | 
63 | O=C(Cn1nnc2ccccc21)OCC(=O)c1ccc(Cl)c(Cl)c1 | inconclusive [inhibitor, partial curve, poor fit] | 
64 | Cc1cc2c(c(SCC#N)n1)C(=O)OC2 | inactive | 
65 | COC(=O)c1cc(Cl)c(NC(=O)/C=C/c2ccc(Cl)cc2)cc1OC | inconclusive [inhibitor, single point] | 
66 | O=C(O)c1ccc(Sc2nnc(-c3cccc(Br)c3)o2)c([N+](=O)[O-])c1 | inactive | 
67 | O=C(Cn1nnc(-c2ccccc2F)n1)NCCc1ccccc1 | inactive | 
68 | O=C(CCc1ccccc1)Nc1ccc(NC(=O)C2CCCCC2)nc1 | inconclusive [inhibitor, single point] | 
69 | S=c1[nH]nc(-c2cccnc2)n1/N=C/c1ccco1 | inconclusive [inhibitor, single point] | 
70 | NC(=S)NNC(=O)Nc1ccc(Cl)c(Cl)c1 | active: 28.2 µM | 
71 | O=C(NC(=S)N1CCCCC1)c1cccs1 | inconclusive [inhibitor, single point] | 
72 | O=C(c1ccc(Cl)cc1)[C@@H]1[C@@H]2C(=O)N(c3ccc(Cl)cc3)C(=O)[C@@H]2C2c3ccccc3C=NN21 (some centres not stated) | inconclusive [inhibitor, single point] | 
